In the supplement of paper PMC10126150 one finds switch fluorescence ratio data, which are given here for 79 sequences.

Sequences with one replicate were seen in a single cluster, so their values are uncertain.
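Also: ATP exposure 15 min at 22 °C before imaging.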

This data set deals with ATP. Nature of the data set: switch fluorescence ratio, 500 uM ATP over buffer (Cy3 cluster intensity, sum of 5 cycles each) (fold (ratio)); higher = stronger signal-on switching upon ATP binding; sequences stand for … in TCGTCGGCAGCGTCAGATGTGTATAAGAGACAGTTTTTTTTTTTTTTTTTTTTTTTTT…TC. As to conditions: aptamer strand: ATP DNA aptamer (quencher-CACCTGGGGGAGTATTGCGGAGGAAGG + anchor), 100 nM annealed; ATP concentration: 500 uM; one replicate. A digest of the protocol:
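Imaging in selection buffer was followed by imaging after 15 min with 500 uM ATP at 22 °C, for Cy3-labelled switching-strand clusters annealed to 100 nM quencher-labelled ATP aptamer on a modified Illumina MiSeq flow-cell. Five of these buffer/ATP cycles ran, separated by NaOH stripping and re-annealing. The fluorescence ratio per cluster is summed target-cycle over summed buffer-cycle Cy3 intensity, averaged per switch-domain sequence; clusters outside 100-1000 RFU were removed.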
Turning to GATATATAAA, the switch fluorescence ratio was 0.95. Next, CTAGACCAA: 0.956; AGTTGACGAG: 1.03; TAAGTATCAG: 0.945. Next, TAAGGATGAG: 0.971; ACATTGCTAA: 1.01. For TATTAGTAGG the value was 0.997; for TAGCCCGGGC, 0.973. Consider GTCATTCTGG, for which the switch fluorescence ratio came out at 0.955. Consider GCGATCCTTT, for which the switch fluorescence ratio was 1.02.

On to TAATTTCATA, for which the switch fluorescence ratio was determined as 0.987.

Regarding AACCACGGCA, the switch fluorescence ratio is 1.25. Turning to CAGATAAGC, the switch fluorescence ratio worked out at 1.02. For GAGTGATCGA the value was 1.06; for AGCGATGAAG, 1.01; for ACAATTGAT, 1.02.

For GTAGCGGGGG, the switch fluorescence ratio stood at 1.01. Next, GGCCTTGA: 0.978. On to GAGTTTAAAG, for which the switch fluorescence ratio stood at 0.955.

With TTTTACCAT, the switch fluorescence ratio was determined as 1.02. AAACTGGTCC: the switch fluorescence ratio was determined as 1.11. Regarding TTCGTCCGTT, the switch fluorescence ratio was 1.1. On to GGGAAAGGCC, for which the switch fluorescence ratio stood at 0.99. Regarding CGATCGCTT, the switch fluorescence ratio was 2.03. Next, GTGGGAGCTC: 0.946; GGAATGATG: 0.983.

For ATTCAAGTTC, the switch fluorescence ratio worked out at 0.998. For ACTCCTGGCG the value was 1.03; for TCGCTGATGC, 1.46; for TAGTTGCGGA, 0.98. Take TCCCTTCCTA: the switch fluorescence ratio was 1.13.

For the sequence AGTGTGATAA, the switch fluorescence ratio amounted to 1.01. Next, AATGGGCCAG: 0.962; GTAAAAGCAA: 1.2.

In the case of CTGTCAATAT, the switch fluorescence ratio is 1.58. Next, ATAATTGCTT: 0.976; GTGGATGTCT: 1.09; GCATAAGGT: 1. Next, TATAGGTCCG: 1.09. For AATGTGACGT the value was 1.01; for AAGCTTCGAG, 1.01. For TAATAATCGT, the switch fluorescence ratio is 0.977. For TCTGTAGATG the value was 1.04.

AGGGTCCGGT: the switch fluorescence ratio is 0.972.

For the sequence AGGAAGAGTA, the switch fluorescence ratio came out at 0.985. Next, CGTCTTTCTT: 1.02; TTGGTCGTTG: 1.04. Next, GTGCAACCCT: 1.06; ATTTGCTAAG: 0.983.

As for GGCCTTCAAT, the switch fluorescence ratio was 1.01. For CGGAGGGAAG, the switch fluorescence ratio is 1.03. Next, CCTAGCCATC: 2.83; CATTTATGAT: 0.995; ACCAAGGGG: 0.997. For GATCGATCTG the value was 0.98; for CTTTCAGAGG, 0.996. For TGCCGTGACT the value was 0.987; for GGGTTAATG, 1.01; for AATAGTTCTC, 1. On to CTCCTACC, for which the switch fluorescence ratio is 1.32. Regarding CAGCAGCTG, the switch fluorescence ratio is 1.05.

ATGATTACAG: the switch fluorescence ratio is 1.02.

As to TGACAGAGGT, the switch fluorescence ratio is 0.971. Next, ATGTAATTTT: 1.02; AGTGACAAGG: 1.02; GATGCATCAG: 0.998. For TATTCTTAGT the value was 0.982. Take GGAGTGTTC: the switch fluorescence ratio was found to be 0.912.

In the case of CGTCTAATCC, the switch fluorescence ratio amounted to 1.1.

In the case of TCAGAACGCG, the switch fluorescence ratio came to 1.03. GGGAGATGCT: the switch fluorescence ratio turned out to be 0.98. Consider GGTCCAAAGA, for which the switch fluorescence ratio was 0.98.

On to GCTTGGGAAT, for which the switch fluorescence ratio was found to be 0.979. Next, GAGTTTATA: 1.01; TTGCACCGTG: 1.

For GGAGGCTACC, the switch fluorescence ratio was found to be 0.948. Turning to GCGAGTAATT, the switch fluorescence ratio amounted to 1. Consider TACGTGTCGC, for which the switch fluorescence ratio amounted to 1.02. Next, AACAGCGTCG: 0.985.
